In the supplement of paper PMC10126150:
Sequences with one replicate were seen in a single cluster, so their values are uncertain.

Test system: ATP
Assay: switch fluorescence ratio, 500 uM ATP over buffer (Cy3 cluster intensity, sum of 5 cycles each) (fold (ratio)); higher = stronger signal-on switching upon ATP binding; sequences stand for … in TCGTCGGCAGCGTCAGATGTGTATAAGAGACAGTTTTTTTTTTTTTTTTTTTTTTTTT…TC
Conditions: aptamer strand: ATP DNA aptamer (quencher-CACCTGGGGGAGTATTGCGGAGGAAGG + anchor), 100 nM annealed; ATP concentration: 500 uM; one replicate
In short: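 For every switch-domain sequence, the fluorescence ratio is the mean of per-cluster values, each being summed target-cycle Cy3 intensity over summed buffer-cycle Cy3 intensity. Clusters outside 100-1000 RFU were excluded. On a modified Illumina MiSeq flow-cell, the Cy3-labelled switching-strand clusters were annealed to 100 nM quencher-labelled ATP aptamer, imaged in selection buffer and then after 15 min with 500 uM ATP at 22 °C. Five such cycles were run, with NaOH stripping and re-annealing between them.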
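Further: ATP exposure 15 min at 22 °C before imaging.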

ATCTATCGAC was tested, and the switch fluorescence ratio was 1.06.
CAATGTAAAC was tested, and the switch fluorescence ratio was 1.06.
GAGTGACGGT gave a switch fluorescence ratio of 1.06.
For CGATTCCGCA, the switch fluorescence ratio was 3.02.
For GTGCCCTAGC, the switch fluorescence ratio was 0.977.
For TAGTAACGAC, the switch fluorescence ratio was 1.05.
In the case of CCCCGTTGTT, the switch fluorescence ratio is reported as 1.23.
Sequence CCTGGTATGT has a switch fluorescence ratio of 0.951.
GAGGATGGCT was tested, and the switch fluorescence ratio was 0.938.
TCTGCGGGCG gave a switch fluorescence ratio of 1.03.
TTCACAATTT gave a switch fluorescence ratio of 0.959.
With CGACAGTATA the switch fluorescence ratio was 1.16.
Work on TTAAAGCCGC yielded a switch fluorescence ratio of 1.19.
Work on TGAGGCGGTA yielded a switch fluorescence ratio of 0.999.
With GCGTGGAATT the switch fluorescence ratio was 0.958.
For TATACGGTT, the switch fluorescence ratio was 0.945.
GAAACTAGGG showed a switch fluorescence ratio of 1.02.
AAGATCGTGT gave a switch fluorescence ratio of 0.984.
TCCTAAGTTG showed a switch fluorescence ratio of 0.997.
In the case of TCGTGGAAGA, the switch fluorescence ratio is reported as 1.04.
TATATAGGGT showed a switch fluorescence ratio of 1.
Sequence TGCAAAACGC has a switch fluorescence ratio of 1.
Sequence AAATTTCGGG has a switch fluorescence ratio of 0.973.
Work on TGCGAAAGTG yielded a switch fluorescence ratio of 1.
TGGAACGGCC gave a switch fluorescence ratio of 0.989.
Sequence AAAGTGCCA has a switch fluorescence ratio of 0.985.
For ATGTTCTCGC, the switch fluorescence ratio was 1.01.
Sequence AGAAGGGAGC has a switch fluorescence ratio of 0.994.
Work on CACTTAGTAT yielded a switch fluorescence ratio of 1.01.
In the case of ATCGTTTAGT, the switch fluorescence ratio is reported as 1.05.
TACGTGTTCA showed a switch fluorescence ratio of 1.04.
TGCAACTAAA was tested, and the switch fluorescence ratio was 1.03.
Work on TCAGACCGCG yielded a switch fluorescence ratio of 0.998.
With AATTATGATT the switch fluorescence ratio was 1.05.
For ACACGTGGAA, the switch fluorescence ratio was 1.
GCATCCAATG was tested, and the switch fluorescence ratio was 0.999.
TCAGTGTATA was tested, and the switch fluorescence ratio was 1.1.
ATCCGT gave a switch fluorescence ratio of 1.04.
With GTGGGCTAAT the switch fluorescence ratio was 0.97.
Sequence AATTGCCGGA has a switch fluorescence ratio of 1.04.
In the case of TTGGGCGT, the switch fluorescence ratio is reported as 1.04.
TGGACTAATG gave a switch fluorescence ratio of 1.08.
For GACTCGAAAC, the switch fluorescence ratio was 1.19.
Sequence ACCGTACACG has a switch fluorescence ratio of 1.13.
Work on AAGGAGTCCA yielded a switch fluorescence ratio of 0.984.
In the case of CGTTATGGAT, the switch fluorescence ratio is reported as 0.966.
For GGGGTCTTGC, the switch fluorescence ratio was 1.05.
AGTGGGACGT gave a switch fluorescence ratio of 0.977.
CGTTCATCAT gave a switch fluorescence ratio of 0.95.
ACGAGGATGT showed a switch fluorescence ratio of 1.02.
GGATTACGTT was tested, and the switch fluorescence ratio was 0.989.
AATATGCCTA showed a switch fluorescence ratio of 0.964.
TGTGACTTTA was tested, and the switch fluorescence ratio was 1.05.
Work on AGCTCCCGGG yielded a switch fluorescence ratio of 1.13.
Work on TATAGATAGC yielded a switch fluorescence ratio of 0.979.
Sequence TAGCACGGAG has a switch fluorescence ratio of 0.999.
With GTGATGATGG the switch fluorescence ratio was 0.978.
In the case of GCGGCCGTAG, the switch fluorescence ratio is reported as 1.06.
Work on AGATGTCCCC yielded a switch fluorescence ratio of 1.09.
TGAACGTAGA was tested, and the switch fluorescence ratio was 0.994.
In the case of AGCTCTATCG, the switch fluorescence ratio is reported as 1.03.
GGACGGCTAT showed a switch fluorescence ratio of 1.
With ATATGTATGT the switch fluorescence ratio was 1.01.
Sequence GACATCAGAA has a switch fluorescence ratio of 1.03.
For GGTATCCGGT, the switch fluorescence ratio was 0.988.
TAGTATGACA gave a switch fluorescence ratio of 1.02.
GAAAAGGCTT showed a switch fluorescence ratio of 1.02.
Work on GCTACCTGCG yielded a switch fluorescence ratio of 1.07.
GATGACATGA showed a switch fluorescence ratio of 1.02.
CGATAGAAGA was tested, and the switch fluorescence ratio was 0.941.
AAATCGAGTT showed a switch fluorescence ratio of 0.986.
TATAGAAATT showed a switch fluorescence ratio of 1.06.
GGCGCAGGGG gave a switch fluorescence ratio of 1.19.
Work on CGTTGTCTG yielded a switch fluorescence ratio of 0.993.
TGGTATATGT showed a switch fluorescence ratio of 0.986.
For ATTAACAACA, the switch fluorescence ratio was 1.01.
TCACAACATG was tested, and the switch fluorescence ratio was 0.961.
Sequence TATGCCATGG has a switch fluorescence ratio of 1.03.
TTTTCTGGGT gave a switch fluorescence ratio of 0.991.
In the case of GGTCTAGGCC, the switch fluorescence ratio is reported as 0.969.
For TATCGGCTCG, the switch fluorescence ratio was 0.983.
Sequence GTGTCCTAGC has a switch fluorescence ratio of 0.975.
Work on CGTGTGTGTG yielded a switch fluorescence ratio of 0.998.
CTGTACATTC showed a switch fluorescence ratio of 1.04.
Work on GCGTCTAGAG yielded a switch fluorescence ratio of 0.953.
For CATTCCGGAA, the switch fluorescence ratio was 1.16.
CAACCATGCG was tested, and the switch fluorescence ratio was 1.02.
With AGCGATTCGC the switch fluorescence ratio was 0.998.
In the case of TTGCACTTCG, the switch fluorescence ratio is reported as 0.999.
With CGGCGTGAAT the switch fluorescence ratio was 1.02.
With GTAGTAGTTT the switch fluorescence ratio was 0.999.
CTGTGAAAAG was tested, and the switch fluorescence ratio was 1.01.
With TCATTGTCGG the switch fluorescence ratio was 0.985.
CCCTTGGTGA showed a switch fluorescence ratio of 1.99.
Work on ATGCAATTAG yielded a switch fluorescence ratio of 1.22.
For TGAAGGTATC, the switch fluorescence ratio was 1.01.
With ACTGTTGGTT the switch fluorescence ratio was 1.02.
CATGTTTTAG gave a switch fluorescence ratio of 0.98.
With TTCGAACC the switch fluorescence ratio was 1.03.
GGGCCCCCAC gave a switch fluorescence ratio of 1.01.
AAGAAAGCCT was tested, and the switch fluorescence ratio was 0.979.
With TCTGCGCGCC the switch fluorescence ratio was 1.01.
Sequence TTAACTATC has a switch fluorescence ratio of 1.01.
Sequence GTCGGAGGAG has a switch fluorescence ratio of 0.937.
GGAAGACACT was tested, and the switch fluorescence ratio was 0.989.
GCCATGGCTG gave a switch fluorescence ratio of 0.978.
In the case of CTAAATAGAC, the switch fluorescence ratio is reported as 1.
CAAATAGAGT gave a switch fluorescence ratio of 0.965.
Work on CGGAGTAGAC yielded a switch fluorescence ratio of 3.91.
With CCGACCATCT the switch fluorescence ratio was 2.54.
Sequence GACGATTTCC has a switch fluorescence ratio of 1.09.
TACGAAAGCT showed a switch fluorescence ratio of 1.23.
For TGTGGAGG, the switch fluorescence ratio was 1.02.
GGGGAGCTGG was tested, and the switch fluorescence ratio was 0.949.
Work on ACGGCTTTGG yielded a switch fluorescence ratio of 1.03.
Sequence GGCTTGCCGG has a switch fluorescence ratio of 1.
Sequence ACGCGCACGA has a switch fluorescence ratio of 1.04.
For ATCTTTAGAG, the switch fluorescence ratio was 0.992.
GCCGACATTT gave a switch fluorescence ratio of 1.09.
In the case of TATTATTCAG, the switch fluorescence ratio is reported as 0.957.
For CGGCGAGGGG, the switch fluorescence ratio was 1.02.
In the case of GAATTATTAG, the switch fluorescence ratio is reported as 0.989.
Work on CGAACCGTGG yielded a switch fluorescence ratio of 1.
For GCTTTGTG, the switch fluorescence ratio was 0.993.
In the case of ACTACGAAGT, the switch fluorescence ratio is reported as 1.
For CATCTACTTC, the switch fluorescence ratio was 1.02.
In the case of TTCTAGTGCG, the switch fluorescence ratio is reported as 0.997.
With TAGTCCCAAT the switch fluorescence ratio was 1.15.
Work on GCGTACAACC yielded a switch fluorescence ratio of 1.09.
CCCGACTAAT gave a switch fluorescence ratio of 1.18.
In the case of CACAAGGCCC, the switch fluorescence ratio is reported as 0.964.
CATAGTCCGG was tested, and the switch fluorescence ratio was 0.956.
For CACACGAAAC, the switch fluorescence ratio was 1.2.
CCATGAGGGA was tested, and the switch fluorescence ratio was 1.04.
Work on ATTGTGAAGT yielded a switch fluorescence ratio of 1.
For CTGTGGTTAT, the switch fluorescence ratio was 1.
In the case of TCATAACGAT, the switch fluorescence ratio is reported as 0.954.
Sequence CCTATGGAGT has a switch fluorescence ratio of 1.01.
Sequence TGTCAATGTA has a switch fluorescence ratio of 0.991.
GAAGGCATAG showed a switch fluorescence ratio of 1.08.
ACCTTGGTCC was tested, and the switch fluorescence ratio was 1.05.
For GTCATACGTT, the switch fluorescence ratio was 1.03.
With CAAAGTGC the switch fluorescence ratio was 1.06.
GTTATTAAT was tested, and the switch fluorescence ratio was 1.02.
Work on GGGTCCTGCA yielded a switch fluorescence ratio of 1.01.
TCTCGTTACC gave a switch fluorescence ratio of 1.07.
Work on GCGATCTGAA yielded a switch fluorescence ratio of 1.
GGGTAGAGTA was tested, and the switch fluorescence ratio was 0.99.
For TCAGCATGTT, the switch fluorescence ratio was 1.
GAATAAAGGC showed a switch fluorescence ratio of 0.986.
In the case of TTAAAGGGAG, the switch fluorescence ratio is reported as 0.976.
Sequence AAGCGGAACA has a switch fluorescence ratio of 0.99.
CAGGCCACAT was tested, and the switch fluorescence ratio was 1.04.
ATGATACGAG showed a switch fluorescence ratio of 1.03.
TTAGCCTCGT was tested, and the switch fluorescence ratio was 0.999.
Work on GAATTTACCC yielded a switch fluorescence ratio of 1.11.
With CGAGTTATTC the switch fluorescence ratio was 1.03.
GGTGGGGCC was tested, and the switch fluorescence ratio was 1.02.
With ATCCTTACTT the switch fluorescence ratio was 1.03.
With AATGAGTCTA the switch fluorescence ratio was 0.982.
ATCGTGCGT was tested, and the switch fluorescence ratio was 0.972.
With CCAAACAGAG the switch fluorescence ratio was 1.03.
In the case of GCAATTACCT, the switch fluorescence ratio is reported as 1.48.
In the case of ATCTAACCAT, the switch fluorescence ratio is reported as 1.02.
CTTGGTTCGT was tested, and the switch fluorescence ratio was 1.01.
Sequence ACTGTTGATC has a switch fluorescence ratio of 0.993.
With TAACCATGCA the switch fluorescence ratio was 1.02.
For TGGCGCGCCC, the switch fluorescence ratio was 0.945.
For ATTCATGTCT, the switch fluorescence ratio was 0.998.
Sequence GTTCATGCGG has a switch fluorescence ratio of 0.96.
TTTACTGGA gave a switch fluorescence ratio of 1.01.
ACTCGGGTGT showed a switch fluorescence ratio of 1.31.
For CCTATTTACA, the switch fluorescence ratio was 1.02.
CGGCTTGG was tested, and the switch fluorescence ratio was 0.978.
With CGCGGGTTCT the switch fluorescence ratio was 1.03.
Work on GGCCCTGCCA yielded a switch fluorescence ratio of 1.
GAGCATCGGC was tested, and the switch fluorescence ratio was 1.25.
For TGATTGCGA, the switch fluorescence ratio was 1.09.
With GGCTTCTACG the switch fluorescence ratio was 1.06.
With TCATATTGGT the switch fluorescence ratio was 1.
Sequence TCCTGTGCAG has a switch fluorescence ratio of 2.51.
GCGCGCAGAC showed a switch fluorescence ratio of 1.17.
Sequence AATTAGCATT has a switch fluorescence ratio of 1.04.
Sequence AAAGCTACA has a switch fluorescence ratio of 1.11.
In the case of CCGTAAGGCG, the switch fluorescence ratio is reported as 1.02.
AAAACCTCGT was tested, and the switch fluorescence ratio was 1.03.
With AGTTACAGAC the switch fluorescence ratio was 1.04.
With TTTCTTATCG the switch fluorescence ratio was 1.02.
Sequence TAGAATTTCC has a switch fluorescence ratio of 1.01.
With TACCAGTCGG the switch fluorescence ratio was 1.01.
CCTGTCCACG was tested, and the switch fluorescence ratio was 1.02.
In the case of CATATCGATA, the switch fluorescence ratio is reported as 1.03.
TACCTTTGGC gave a switch fluorescence ratio of 1.07.
CCCCGCGGGC gave a switch fluorescence ratio of 4.3.
Sequence GGGAAATCCC has a switch fluorescence ratio of 1.26.
For GATCGGGGTC, the switch fluorescence ratio was 1.
Work on GAAGTCTCAC yielded a switch fluorescence ratio of 1.05.
Work on TATTTAAGAA yielded a switch fluorescence ratio of 0.986.
For TTCCTGACTA, the switch fluorescence ratio was 1.01.
Sequence GCTTTTCCCG has a switch fluorescence ratio of 1.04.
For ACATCTGACT, the switch fluorescence ratio was 1.06.
